Source: the supplement of paper PMC11417369
This is one part of the list.

Each sequence was assayed on PfHDP1 homeodomain (GST-tagged) (assay: gcPBM binding intensity (ln(normalized median fluorescence intensity)); higher = stronger DNA binding).
Method in brief: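 Plasmodium falciparum DNA-binding domains carrying a GST tag were expressed in E. coli and applied for 1 h, at about 25 μg on average, to an Agilent 4 × 180k array. The array held primer-extended double-stranded 36-bp intergenic genomic probes together with negative controls, and binding took place in 1× PBS with 1% milk, 0.2 mg/ml BSA, 0.5% salmon testes DNA and 0.03% Triton X-100. An Alexa488 anti-GST antibody detected bound protein, and the array was scanned at 488 nm. Binding intensity is taken as the highest Masliner-normalised natural-log median intensity across replicate spots of either probe orientation.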

Sequence	gcPBM binding intensity (ln)
TTCAGAGAATAAAAATGTACATATAATATTTTAAAA [XGTACX_site577]	6.39
ATGTAGGTTAATTATTGTACGTAGGGGGTGTATATT [XGTACX_site3973]	8.01
CTCTTGTCATTTTGCACACACACATGTATAGGTTAT [CACACA_site3057]	11.1
TAAATTTGTGGGATTTCACACAGGTTTATTTACATT [CACACA_site5455]	5.97
TATTACCCATATTATACACACATATATTATATATAT [CACACA_site1567]	7.08
CTGTTTTACTTTAGTAGTACAATAAAAATATAAAAA [XGTACX_site2934]	6.23
AAAAAAAAAAAACATACACACAAATATATACATACA [CACACA_site4011]	6.44
TAATTTTATATTAAAAGTACATAATAAAAACTATAA [XGTACX_site8779]	6.26
AAGAAATATATATATATATATATATATATATATGTA [TGCATGCA_negctrl_site442]	7.43
TACATACACGGACACACACACATATATATATATATA [CACACA_site5883]	9.41
CACTAATATATATACAGTACATAATAAAGTATATAA [XGTACX_site6875]	6.16
TGATGATATAAAAACACACACATATAATATAATACT [CACACA_site1208]	6.78
AGAGCATAATAAAACACACACATACATACAGATATA [CACACA_site4671]	8.56
TTTAAAAACAAATATTGTACAAATTAAAATATATCA [XGTACX_site7220]	6.81
CATATAGTATAAATTTGTACATAAATATATATATAT [XGTACX_site7477]	8.91
AGAGTATATAAAGTAACACACAATAAAATAAAATAA [CACACA_site2328]	6.71
AAATGATGCATTTGTCATTAAAATTGTGAAATATTA [CACACA_negctrl_site231]	6.58
AAAAAAAAAAAAAAAAGTACATATATATATAATTAT [XGTACX_site7836]	6.43
ATAATATCTTCTTTTTTTTTTTTTTTTTTTTTTTTT [CACACA_negctrl_site1005]	7.01
TATAATAAAATATGTACACACATACAGACATATATA [CACACA_site6693]	6.6
TAATTAAGATGATAAAAATTGAAAAAACAATTTTAA [CACACA_negctrl_site658]	5.68
ATATATATATAATGTGTACACACATATGTATTTATA [CACACA_site8170]	8.5

Sequence	gcPBM binding intensity (ln)
TAAGAAATAAATAGTACACACATAGACACACGCACA [CACACA_site6821]	7.13
AATATAACTTAGAATTGTACATAAAAAAAAATATAT [XGTACX_site3313]	6.49
TACCTAATATGTTATACACACATTATAAGTACATAT [CACACA_site7206]	7.02
GTGTGATGGTACAATATACACACTTAAAAAAAAAAA [CACACA_site8769]	6.33
AGTTATATGGTTAATACACACAACAAATGTTTCTTC [CACACA_site6642]	6.58
AAAAAATATATTTGCACACTCAAAAAAAAAAAAAAA [CACACA_site859]	10.3
ATACATAAAATTAAAACACACATTTTATTAAATACG [CACACA_site2167]	6.44
ATACATATATATATATGTACACATAAACATGAGTGA [XGTACX_site3200]	6.62
TAATGGAAACCATTTATTTTCTGCAATATATTTTTT [CACACA_negctrl_site1653]	5.62
TTCAAAAAATAAAATAATAATATATATATAAATATA [XGTACX_negctrl_site84]	6.32
TCATTAAAGGAAAAATGTACGTATAAATAAATATAT [XGTACX_site2587]	6.49
TGTGTTTATACGTTTTGTACATATTTTTATTTTGTA [XGTACX_site6425]	6.74
TTTACATCAACCTTTTCACACATTCATATACAGATA [CACACA_site6152]	7.15
TTTTTTATATTTAAACTTCACATGGTTTTCATTTAT [XGTACX_negctrl_site291]	6.47
ATATGAAATATATAAATATGTTTATATATATATATA [GTGCAC_negctrl_site94]	9.06
TATAAAATACATTTATAATATATATATATATTTTTT [TGCATGCA_negctrl_site435]	6.19
AATGTAAAATATAAATGTACATATATATATATATAT [XGTACX_site5071]	9.34
ATTTATTTATACAAAGTGCAATATTTTGTTAAAGTC [GTGCAC_site9618]	8.15
AAACAAAATATGGTTCATGAGCAAAAGTTTATTTTG [XGTACX_negctrl_site531]	8.18
CTCTTTTCTTATAATACACACAGTAATATATATATA [CACACA_site1520]	8.38
ATAAATCTACACCGCACACAAAAACAACAAATATTA [CACACA_site5396]	7.05
AATGAATATATATAAATATATATATATATATATATA [CACACA_negctrl_site1494]	9.32

Sequence	gcPBM binding intensity (ln)
ATATTTGTATAAATTGCACACTTTATTTTTTTTAAG [CACACA_site1558]	9.86
ATGTTATTACATAATTGTACATTTTGAGCAATTAAG [XGTACX_site4640]	9.33
AAACGTAACATATATATATATATATATAAGATATAT [CACACA_negctrl_site126]	7.32
AAAAGAATAATAATTTATGTATATTAATTAAAGAAT [XGTACX_negctrl_site402]	6.44
TTATATATATGTGTATGTACATATATATATATATAT [XGTACX_site1141]	9.21
TATCATATATTATATGCACACATGTTTTTCAAGAAT [CACACA_site1892]	9.65
TATATAATATTCTACACACCAACAACAAACATATAT [CACACA_site567]	7.03
ATATATATATTTATATGTACATAATATAAAATTTCT [XGTACX_site3720]	7.7
ATATTCTGATTTTAGATGCACTTCGTTAACAAAATA [GTGCAC_site9958]	7.22
ATAAGATGATTAATTACACACTTTATAGGATATTTA [CACACA_site1711]	6.25
GGTATATGCATAAAGAGTACGTAACTTCTTTTTGTT [XGTACX_site6344]	7
AAATGTGTAAATATAATTAGTTTCACAAAACAAATA [GTGCAC_negctrl_site543]	6.15
TATTTATTATTATGTACACACTATATTAAAACATAA [CACACA_site4549]	6.57
TATGTGAATCCTAAGTGTACACATCTTACATATATA [XGTACX_site2506]	7.05
AGTATACGCAGACACACACACACATATATATATATA [CACACA_site1735]	9.19
TTAGCTTTTTTTTAAACATGCAACTACTTGATCCAC [TGCATGCA_site1017]	6.56
TTTTTTTTTTTTTCTTCACACACAGTACTACTATTT [CACACA_site8759]	6.43
CCAAAAAATATATGTAGTACTACATTATTAAATATG [XGTACX_site5128]	6.95
TTATATTTATAAAGGTGTACCTTAAAATGATTTTAC [XGTACX_site3774]	6.11
ATATATTATATTAATTGTACATAAAAAAGAGAAAAA [XGTACX_site3366]	6.65
AAAATTAAATAAAAATGTACAGAAATATTATATGAA [XGTACX_site5695]	6.52
ATTAAGTACTAAAAAGTGCAGTTCGGTACTGTGCTT [GTGCAC_site9755]	6.42

Sequence	gcPBM binding intensity (ln)
AATATATAAATCAATAGTACATATATATATATATAT [XGTACX_site3898]	9.29
AAGTACATACATAAAACACACACATATATATATATA [CACACA_site8541]	9.39
AATAAAAAACATGAAAGTACTTTAAAAAAGGTAATA [XGTACX_site1897]	7.03
AGAAAAATTACAAAATGTACATAATGTGTTATTAAT [XGTACX_site7877]	6.33
ATGTATAAACAAAAGGGTACATATATATATATATAT [XGTACX_site2087]	9.31
TTATATAAAGAATGTACACACAGAAATGCACCCACA [CACACA_site2282]	9.38
ATTAAATATGAGGGAACACACACATGATATATAAAT [CACACA_site8755]	6.84
TTTTAATTAAATAAATGTACTCATTCTATTATTTAT [XGTACX_site3032]	6.02
ATAAATTTTTTATGAACACACAAATACCCACGCTCA [CACACA_site2659]	6.88
ATTTTATTTTTGTGCACACTGATAAATTGAAAAGAG [CACACA_site2948]	11.1
TATTACACATATTATGTGCACATATATAATCAATAT	10.9
TATATATATATAATATGTACATATATTAAGCATTTT [XGTACX_site4470]	8.65
AAAAAAAAAAATTAAAGTACTAATTAAAATTATATG [XGTACX_site5289]	6.22
TATATATATAAATACACACACACACCCCAAAGCGTA [CACACA_site4211]	7.32
TATTTTTTAAAAAATTATAAATAAAATTATATTACG [CACACA_negctrl_site324]	6.18
AAAAAAAACACGCGCACACACACACCCACAGACACA [CACACA_site5253]	6.89
ACAGTATATTAAAAAATACACACGTATTATATCTAC [CACACA_site2640]	6.26
TATAATATATTCACTCGTACATATTTAATAATATCT [XGTACX_site6209]	6.47
AAATTCAATTTGCGCTGTACATGAAGATATAAATTT [XGTACX_site4844]	6.87
ATACCTGTTGTGTTACGTACATAATTTTAATGTTTG [XGTACX_site8181]	7.08
CACACGCACAAAAACACACACAAAGGTGTTCTTATA [CACACA_site6724]	7.76
AGATATTTCATTTAAAGTACATTCTTTATCACATAA [XGTACX_site6731]	6.08
